Test results: PubChem BioAssay AID463173 (ICCB-Longwood Screening Facility, Harvard Medical School, 2010)
In all, about 52,000 compounds went through this assay and about 1,700 (3.3%) were called active. No stated cut-off is given here; in the data, active means survival mostly below about 52% (no sharp cut-off); inactive means mostly above about 56%. Some of the results follow.

Test system: Wild type
Experiment: growth inhibition of S. aureus wild type versus tarO mutant, primary screen, teichoic acid synthesis inhibitors, RN4220, OD600 (AID 463173)
Conditions: S. aureus RN4220 wild type/DeltatarO growth, OD600, 18 h, hits give low values, screened at 18.75 µg/mL (by protocol)

SMILES	survival
CCNc1c(NC(=O)c2cc(OCC)c(OCC)c(OCC)c2)c(=O)oc2ccccc12	inactive: 92%
CCOC(=O)c1c(-c2ccc(OC)cc2)oc2ccc(OCc3ccc(C(=O)OC)cc3)cc12	inactive: 53%
CC(NC(=O)C(=O)Nc1c2c(nn1-c1ccc(F)cc1)CSC2)c1ccccc1 (centres undefined)	active: -4%
COc1cccc(CNC(=O)CCn2cccn2)c1	inactive: 75%
CCc1cc(C=Nc2ccccc2)c(O)s1	inactive: 113%
O=C(NCCCN1CCN(c2ccccc2F)CC1)c1nnc(Cc2ccc(Cl)cc2Cl)o1	inactive: 77%
CCOC(=O)c1c(NC(=O)COc2ccc(F)cc2)sc2c1CCC(C)C2 (centres undefined)	inactive: 69%
CCC(=O)N1CCc2cc(Br)cc(S(=O)(=O)NCCc3ccccc3)c21	inactive: 68%
CCOC(=O)c1[nH]cnc1C(=O)Nc1ccc(F)cc1	inactive: 71%
CCCCN(C)CCNC(=O)c1nn(-c2ccc(OC)cc2)c(=O)c2c1c1ccccc1n2C	inactive: 74%
N#C/C(=C\c1ccc(-c2cc(Cl)ccc2Cl)o1)C(=O)Nc1ccccc1C(=O)O	inactive: 60%
CC(C)(C)C(=O)Nc1cccc(C(=O)OCc2cc(=O)n3nc(C4CCCCC4)sc3n2)c1	inactive: 130%
O=C(CSc1nc2ccccc2n1Cc1ccccc1Cl)NCc1ccccc1	inactive: 72%
COc1cccc(CNC(=O)CCNS(=O)(=O)c2ccc3c(c2)oc(=O)n3C)c1	inactive: 78%
Cc1cc(C)c(Cn2c(C(O)c3ccccc3)nc3ccccc32)c(C)c1 (centres undefined)	active: 11%
CCn1cc2nc(SCc3ccccc3F)n(Cc3ccc(C)cc3)c(=O)c2n1	inactive: 72%
Cc1ccc(NC(=O)CCS(=O)(=O)c2cccc3nsnc23)c(C)c1	inactive: 74%
CCN(Cc1ccccc1)C(=O)CN1C(=O)COc2ccc(S(=O)(=O)N3CCCCCC3)cc21	inactive: 98%
CC(CN=CC1=C(O)CC(C)(C)CC1=O)N=CC1=C(O)CC(C)(C)CC1=O (centres undefined)	inactive: 98%
CCOc1ccc(NC(=O)CCS(=O)(=O)c2ccc3c(c2)n(C)c(=O)c(=O)n3C)cc1	inactive: 81%
Cc1ccc2cccc(NC(=O)C(C)(C)Oc3ccc(Br)cc3)c2n1	inactive: 64%
CCCS(=O)(=O)Nc1cc2c(cc1NCc1ccccc1)n(C)c(=O)n2C	inactive: 82%
CCOc1ccc(NC(=O)CSc2nc(-c3ccc(F)cc3)cc(C(F)(F)F)c2C#N)cc1	inactive: 127%

SMILES	survival
COc1ccc(C(=O)NCC23C=CC(O2)C2C(=O)N(c4ccccc4C)C(=O)C23)cc1 (centres undefined)	inactive: 103%
CCOC(=O)c1ccccc1NC(=O)Cn1c2ncccc2c(=O)n1-c1ccccc1	inactive: 120%
Cc1ccc(C)c(N2CCN(Cc3nnc(-c4ccccc4)o3)CC2)c1	inactive: 87%
COc1cccc(C(=O)c2cn(CC(=O)Nc3cccc(C)c3C)c3nc(C)ccc3c2=O)c1	inactive: 80%
COc1cc(-c2nnc(SCCOc3ccc(C)c(Cl)c3)o2)cc(OC)c1OC	inactive: 125%
CCOC(=O)CSc1nc2ccc(NC(=O)c3ccccc3)cc2s1	inactive: 87%
CCOCCCn1c(SCC(=O)Nc2ccc(OC)cc2OC)nc2ccccc2c1=O	inactive: 80%
O=C(NC(CO)C(=O)O)c1ccncc1 (centres undefined)	inactive: 90%
Cc1ccc(CN2CCc3nc(SCC(=O)Nc4cccc(C)c4C)[nH]c(=O)c3C2)cc1	inactive: 91%
COc1ccc(-c2cn3c(n2)sc2cc(C(=O)Nc4cc(Cl)ccc4C)ccc23)cc1	inactive: 83%
CCc1ccc(C(=O)Nc2ccc3nn(-c4ccc(C)c(Cl)c4)nc3c2)cc1	inactive: 87%
Cc1cccc(C)c1NC(=O)Cn1nc(C)c2sc3ccccc3c2c1=O	inactive: 97%
COc1cc(OC)cc(-c2nc3nc(C)c(CCC(=O)Nc4cc(F)ccc4F)c(C)n3n2)c1	inactive: 109%
CCOC(=O)c1ccc(NC(=O)Cn2cc(C(=O)c3ccc(Cl)cc3)c(=O)c3ccc(C)nc32)cc1	inactive: 68%
O=C(CCNS(=O)(=O)c1ccc2c(c1)CCN2C(=O)C1CC1)Nc1ccc(F)cc1F	inactive: 59%
COc1ccc(N2CC(NC(=O)c3ccc(S(=O)(=O)N4CCCCC4)cc3)CC2=O)cc1OC (centres undefined)	inactive: 126%
Cc1cccc(NC(=O)c2cc(S(=O)(=O)N3CCC4(CC3)OCCO4)ccc2F)c1	inactive: 87%
O=C(C1=C(N2CCCCC2)c2ccccc2S(=O)(=O)N1)c1ccccc1	inactive: 100%
CCSc1ncc(Cl)c(C(=O)Nc2c(C(=O)c3ccccc3)oc3ccccc23)n1	inactive: 90%
Cc1ccccc1CN1CCN(CC(=O)NCc2ccccc2Cl)C1=O	inactive: 77%
O=C(NCCc1csc(-c2ccc(F)cc2)n1)c1ccc(Br)o1	inactive: 73%
Cc1nc2cc(-c3ccccc3)nn2c(C)c1CCC(=O)N1CCN(c2ccccc2)CC1	inactive: 69%
COc1ccc2oc(-c3ccc(C)c(NC(=O)Cc4ccc(Cl)cc4)c3)nc2c1	inactive: 140%

SMILES	survival
Cc1cccc(-c2nc(Cn3c(SCc4cccc(C(F)(F)F)c4)nc4ccncc43)c(C)o2)c1	inactive: 81%
Cn1cnc2c(=O)oc3ccc(S(=O)(=O)N4CCN(c5cccc(Cl)c5)CC4)cc3c21	active: -6%
Cc1c(NC(=O)c2cc(=O)c3cc(Cl)ccc3o2)c(=O)n(-c2ccccc2)n1C	inactive: 82%
Fc1ccc2c(c1)NC(c1ccncc1)=NC(c1cccs1)=N2	inactive: 47%
Cc1nc2c(C(=O)NC(C)c3ccccc3)cnn2c(C)c1Cc1ccccc1 (centres undefined)	inactive: 68%
COC(=O)c1cc2occc2n1Cc1nc(-c2ccc(C)cc2)oc1C	inactive: 48%
CCN(CC)C(=O)c1ccccc1C	inactive: 102%
CCC(=O)Nc1nnc(S(=O)(=O)N2CCc3ccccc32)s1	inactive: 81%
Cn1cnnc1SCC(=O)O	inactive: 111%
CC(C)c1ccc(N2C(=O)CSC23C(=O)N(Cc2ccccc2)c2ccccc23)cc1 (centres undefined)	inactive: 68%
Cc1ccc(NC(=O)Cn2c(=O)n(Cc3nc(C)no3)c(=O)c3cc4c(cc32)OCO4)cc1	inactive: 90%
COc1ccc(NC(=O)N2CCN(S(=O)(=O)c3ccc4c(ccn4C)c3)CC2)c(OC)c1	inactive: 87%
COC1CCC(C(=O)Nc2nc(-c3ccc4c(c3)CCN4S(C)(=O)=O)cs2)CC1 (centres undefined)	inactive: 103%
O=C(/C=C/c1ccccc1Cl)Nc1nc(-c2cccs2)ns1	inactive: 73%
CC(Oc1ccccc1)C(=O)Nc1c[nH]c(=O)[nH]c1=O (centres undefined)	inactive: 105%
O=C(Cn1cc(SCc2c(F)cccc2Cl)c2ccccc21)N1CCCC1	inactive: 92%
CCc1nnc(NC(=O)c2c(O)c3ccccc3n(C)c2=O)s1	inactive: 91%
Cc1nc2ccn(Cc3ccco3)c(=O)c2cc1C(=O)N1CCN(c2ccc(F)cc2)CC1	inactive: 131%
COc1cccc(CNC(=O)C(C)n2c(=O)cc(-c3ccccc3)c3c(C)nn(C)c32)c1 (centres undefined)	inactive: 82%
CN(Cc1ccccc1)C(=O)CSc1nc(-c2ccc(F)cc2)cc(C(F)(F)F)n1	active: -4%
Cc1ccc(/C=C(\C#N)c2nc3ccccc3c(=O)[nH]2)cc1	inactive: 86%
O=C(Nc1nnc(S(=O)(=O)N2CCc3ccccc32)s1)c1cccc(Cl)c1	active: 12%
CCCC(CCC)C(=O)NC1CC(=O)N(c2ccc3c(c2)OCCO3)C1 (centres undefined)	inactive: 119%

SMILES	survival
CCOc1ccc(CC(=O)Nc2c(C(=O)c3ccccc3)oc3ccc(OC)cc23)cc1OCC	inactive: 74%
CCc1ccccc1NC(=O)Cn1c(=O)n(Cc2ccc(OC)cc2)c(=O)c2oc3ccccc3c21	inactive: 82%
CCn1c2ccccc2c2cc(CN3CCN(Cc4ccco4)CC3)ccc21	inactive: 104%
COc1ccc(NC(=O)C2CCCN(c3nnc(C)c4c(C)n(-c5ccccc5)nc34)C2)cc1Cl (centres undefined)	inactive: 124%
CCOC(=O)c1cccc(N2C(=O)C3C(C(=O)NC4CC4)C4(C)C=CC3(O4)C2C(=O)NC(C)(C)C)c1 (centres undefined)	inactive: 100%
COCCOC(=O)c1c(-c2ccccc2)c(-c2ccccc2)nn(C)c1=O	inactive: 84%
O=C(CSc1nc(-c2ccc(F)cc2)[nH]c1-c1ccc(F)cc1)Nc1ccc2c(c1)OCCO2	inactive: 78%
COc1ccc(Cc2nc3ccc(C(=O)NCc4ccccc4Cl)cc3o2)cc1	inactive: 65%
Cc1ccc(NC(=O)CS(=O)CC(=O)Nc2ccc3c(c2)CCC3)cc1 (centres undefined)	inactive: 107%
O=C1OC(C(=O)Nc2cc(C(F)(F)F)ccc2Cl)Cc2ccccc21 (centres undefined)	inactive: 78%
Nc1nonc1-n1nnc(CO)c1CO	inactive: 106%
Cc1ccc(C)c(N2CCN(C(=O)c3cnn(-c4ccccc4Cl)c3C3CCN(C(=O)OC(C)(C)C)CC3)CC2)c1	inactive: 77%
CCc1ccc(NC(=O)C(CC)n2c(=O)c(-c3ccccc3NC(C)=O)nc3ccccc32)cc1 (centres undefined)	inactive: 60%
C#CCSc1cccc2cccnc12	inactive: 97%
CCOc1ccc(CC(=O)NCC(c2cccs2)S(=O)(=O)c2ccc(F)c(C)c2)cc1 (centres undefined)	inactive: 80%
O=C(COc1ccc(Cl)cc1)Nc1ccccc1OCc1cc(=O)n2ccccc2n1	inactive: 68%
CCOC(=O)c1c(C)c(-c2ccccc2)n(CC(=O)NC(CC)Cc2ccccc2)c1C (centres undefined)	inactive: 122%
CCN(CC)c1ccc(NC(=O)C2CCN(S(=O)(=O)c3cnc[nH]3)CC2)c(C)c1	inactive: 83%
Cc1ccc(NC(=O)C2CC(=O)N(c3ccc(OC(C)C)cc3)C2)cc1 (centres undefined)	inactive: 89%
COc1ccccc1N1CCN(C(=O)c2cnn(-c3ccc(F)cc3F)c2C2CCNCC2)CC1	active: 0%
